Measured values from paper doi:10.1101/2023.03.14.532528, “Nanobodies against SARS-CoV-2 reduced virus load in the brain of challenged mice and neutralized Wuhan, Delta and Omicron Variants” (bioRxiv, 2023).

Target: T1, SARS-CoV-2 receptor binding domain (RBD) of the Spike protein, Wuhan-Hu-1 (WT) (SARS-CoV-2 (Wuhan-Hu-1))
T1 construct: also called SARS-CoV-2-RBD
Assay: ELISA; competition (surrogate virus neutralization) ELISA: RBD adsorbed overnight at 4°C at 0.2 ug/well in carbonate/bicarbonate buffer pH 9.6, blocked with 3% skimmed milk; two-fold dilutions of Nbs (from 1 uM) 1 h at room temperature, then ACE2-HRP 2 h at RT; TMB, read at 450 nm
Settings: both partners purified

B1: ACE2s-HRP (soluble ACE2 fused to horseradish peroxidase) (receptor)
chain: not shown
notes: also called ACE2-HRP; ACE2 receptor; not shown: HRP, C-terminal, kept
binding result: binds
